# Over roughly 33,000 sequences, “E-score (-0.5 to 0.5)” has its median near -0.013; the highest 2% begin near 0.3. Some of the results follow.
# Target: T1, Msn1 (UniProt P22148)
# T1 sequence: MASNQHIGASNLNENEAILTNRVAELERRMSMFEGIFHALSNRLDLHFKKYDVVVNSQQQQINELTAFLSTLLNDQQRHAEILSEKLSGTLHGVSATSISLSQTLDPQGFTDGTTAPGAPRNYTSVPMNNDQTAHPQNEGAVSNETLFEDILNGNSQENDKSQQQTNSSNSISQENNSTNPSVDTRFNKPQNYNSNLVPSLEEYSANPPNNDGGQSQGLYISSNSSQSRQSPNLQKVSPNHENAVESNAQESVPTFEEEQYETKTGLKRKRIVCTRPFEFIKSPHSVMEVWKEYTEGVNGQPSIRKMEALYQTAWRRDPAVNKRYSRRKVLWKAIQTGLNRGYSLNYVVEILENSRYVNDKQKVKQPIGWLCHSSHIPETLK
# Assay: PBM E-score (8-mer binding enrichment) (E-score (-0.5 to 0.5)); higher = stronger / more preferred TF binding; most listed sequences are background and not binding sites
# Conditions: protein concentration: 200 nM; construct: GST-full length
# Method in brief: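 The E-score, a modified Wilcoxon-Mann-Whitney statistic, was computed by the Universal PBM Analysis Suite for every ungapped eight-base word pooled with its reverse complement. Scans behind it were normalised with masliner after bound GST-tagged yeast transcription factors were detected with fluorescent anti-GST. The proteins, at about 100-200 nM, had been applied to universal all-10-mer Agilent arrays made double-stranded by primer extension.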
row,Sequence,PBM E-score
1,CCGTGTAC,0.296
2,CAGTACTA,0.138
3,ATCGGGGC,-0.227
4,ACCAAGGA,0.0154
5,ACTCTCCC,-0.0866
6,AATAGACT,-0.0241
7,ATCGCACG,-0.0851
8,GAGCGATC,-0.11
9,TCGGCAAA,-0.0144
10,AAGCGCGA,-0.00175
11,GACATAGC,0.295
12,CTTCCATC,-0.174
13,ATCAGTTG,0.0796
14,GATCTTGC,-0.0598
15,CGACCAGA,-0.0555
16,CATCCCCC,-0.348
17,CGTCCGAC,0.0761
18,GGAACGAC,0.0187
19,GACGAAGC,-0.00099
20,CTAATAGA,0.0687
21,GCCGCGAA,-0.141
22,ATATAGTA,0.209

row,Sequence,PBM E-score
1,CGAAATAG,-0.02
2,CTCGAAGC,-0.124
3,ACAAGACC,0.0532
4,AAGTAGAA,0.0804
5,ACCAGGAG,-0.0931
6,TCTGCGCA,0.0234
7,CTCATAAG,-0.129
8,AGAGGTAC,-0.0473
9,CCTATATC,0.0394
10,AATTCCTC,-0.0412
11,GTCGTGGA,0.0639
12,ACTTGAGC,-0.0164
13,GATTTTAC,0.0875
14,ACATGAGT,0.0627
15,TCCGATAA,0.148
16,AGTGGATA,0.0609
17,GAGTATGA,0.105
18,ACTATTGA,0.144
19,TGCACTAA,0.221
20,CGGGGGAG,-0.291
21,AGCACATC,-0.0251
22,AGATTCGG,0.155

row,Sequence,PBM E-score
1,GACGGATA,-0.131
2,ATCGCTTA,0.0702
3,GTCGTTAA,0.17
4,AGCCCCTC,-0.239
5,CCCAAAAC,0.108
6,CATTATGA,-0.0894
7,CACTAGTG,0.276
8,CCCCTACG,-0.428
9,CGCACTAC,-0.0329
10,CCAGCTTC,-0.0377
11,CAAGGATA,-0.0736
12,ACCACTTG,0.0211
13,CACGGTAG,-0.0888
14,CTGAATAA,0.128
15,TAATTATA,0.19
16,GGCGAAGA,-0.261
17,AGACGGGG,-0.224
18,CAGTCATG,-0.159
19,CAATACTA,0.034
20,AAACGTTG,-0.163
21,CCCGGGTA,-0.0261
22,AGCGTATG,-0.049

row,Sequence,PBM E-score
1,GACTCCTA,-0.161
2,AGCATCGC,-0.21
3,CTTAGAAG,-0.0878
4,AACGACTT,0.00873
5,CATTCTAC,0.0124
6,ACGTCGTG,0.188
7,GATCTACC,-0.137
8,CCCCACAG,-0.169
9,AGCAATAG,-0.148
10,GTTCCTCA,-0.11
11,CGGCTTAA,0.03
12,ACCGTGCG,0.00414
13,AACATACA,0.146
14,AGAGGCTA,-0.2
15,GTAGGCAA,-0.21
16,AGTTTCCA,-0.0378
17,ACGTCTTG,0.153
18,TATCCACA,0.00957
19,CTATGGAC,0.257
20,ATTGCTGG,-0.0281
